Experimental data reported in the RNAGym collection of RNA variant scans (doi:10.7554/elife.90254).
Read counts are not given, so values of variants with three or more changes are uncertain.

B1: LINE1-mini (parent)
chain: GGCAGAGCUCAACACAGCGUGGCAAAGUGGCUGUGGCUAGACUGCC

Variants of: B1
Assay: self-cleavage, relative activity (ratio to wild type); higher = more cleavage; in vitro, sequencing; the parent is a self-cleaving ribozyme

Variant | self-cleavage
A12U C13A G29U G30C | 0.04
C13A A25C G30A U32G | 0.02
A12U G19U G35C C46A | 0.06
A12U G22C G27U | 0.13
C13A G19A A25C A26G | 0.08
C13A A25U U28C G29U A41C | 0.02
C13A C23U G27A | 0.14
C13A C37G C42U | 0.33
A12U G22U U32A | 0.13
A12U G22U U43A | 0.84
C13A A26C U34A G40U C45G | 0.01
A12U G17A G22C A24G C37A | 0.02
A12U G17C G29U C31A C46U | 0.01
A12U A24C G29A | 0.19
C13A A14C A16G C23A U28G | 0.05
A12U G19U G22A U34C | 0.08
A12U U28A U32G A39C A41U | 0.01
A12U C18A A25U | 0.37
A12U C23G A25G G29A G30U C42U | 0.01
A12U G21C C37G U43A | 0.03
C13A A16G G19C G33U G40U | 0.01
A12U U28A G29C C42G G44U | 0.02
A12U A16U G17A G19U A24G A26C | 0.05
A12U C23G G35U | 0.14

Variant | self-cleavage
C13A A14U C23A A25C U32G G33U | 0.08
A12U U20C C23U | 0.2
C13A A14U G22U G40A | 0.03
A12U U32C U38A | 0.04
C13A C31U G33A | 0
A12U U20G C42U G44A | 0.07
A12U C13A U32A C45G C46A | 0.08
A12U C13A G21C A24G | 0.05
C13A A14U G17A C18A G30U | 0
A12U G19U U20C U32G C42U | 0.01
A12U G17A C37A C46U | 0
C13A A14C U34A C42G | 0.1
A12U C15A A26C C31G | 0.12
C13A G17A C23U A41G | 0.04
A12U C23U G36U | 0.05
A12U C23U G36C | 0.01
C13A C18U C23A A25C G33C | 0.03
A12U A41U C45A | 0.13
A12U G35A C45U | 0.36
A12U U32G G33A | 0.01
C13A A16U U43G C46G | 0.07
A12U U28C A39C C45A | 0.03
A12U G19U C23A C46U | 0.16
A12U C13U U32A G36U G44U | 0.03

Variant | self-cleavage
A12U A25C G44C | 0.19
C13A G17C G27C | 0.08
A12U G27A C42A | 0.04
C13A C15G G27U C31U G35A C45G C46G | 0.01
C13A A14C C18U G21U A26U G29C | 0.05
A12U G27A U34A | 0.05
A12U G30U C45U | 0.08
A12U U43G C45G | 0.01
C13A A14C G22A | 0.07
A12U C37G G44C | 0
A12U G33A G36U | 0.06
A12U C18U G21U C31A | 0.01
A12U U20A A26G G27U | 0.03
A12U G29U G40A | 0.19
C13A G19C U32G | 0.01
A12U A26U U28A C45A | 0.57
A12U G33C A41G | 0.13
A12U U20G C37G | 0.01
A12U G19C U34A A39C U43A | 0.03
A12U U28G A39G U43C C45G | 0.06
A12U C15A A25U | 0.03
A12U G17U G19A G21U G33A | 0.09
C13A G19A A24G | 0.16
A12U C23A G30A G35C G40C | 0.02

Variant | self-cleavage
A12U G33C U38G | 0
A12U U20A U28G C42G | 0.01
A12U C15G G21U G27A | 0.04
A12U C31U G35C A39G | 0.01
A12U G21C G22U | 0
A12U G17A C45A | 0.05
C13A A16C C18A | 0.02
A12U C31U G35U | 0.03
C13A G19A G33A C37A | 0.04
C13A C18U G21C G40A C42G | 0.06
A12U C18A C23U G30C G36U | 0.03
C13A C23A G29A A39C | 0.01
C13A C15U C23A U34G | 0.01
C13A A25C A41G | 0.03
A12U C13U C15G A39C | 0.05
C13A A39U G44U | 0.1
C13A C37A U43A | 0.01
C13A C18U A26G | 0.03
C13A C15G G29U G33C | 0.04
C13A C18U G27U G36U U43G | 0.01
C13A G17U G29U | 0.34
C13A A26C U34C G36U C42A | 0.12
A12U U20G G22A A24G G29U | 0.26
C13A A14C A16C G36U C37G U38G | 0.05

Variant | self-cleavage
A12U C18A G29C C37A C46U | 0
C13A C37U C42A | 0.28
A12U C23U U32C G36A C37A | 0.01
C13A G19U C23G A24C A25C C37G | 0.02
A12U G40A C45A C46U | 0.02
A12U G21C G44A | 0.08
A12U C37A C45U | 0.37
C13A A24G U28C G35A A39U | 0.11
C13A C23A C37A C42U | 0.27
C13A A14C U28G G29U | 0.01
C13A A26C C37U | 0.08
C13A A25C A26G C37G G44C C45U | 0.01
C13A C23A U28A U34G | 0.01
A12U G27U A39U | 0.01
C13A A26G C31A U34C C37A | 0.08
A12U G21C C46A | 0.82
C13A C15G G17U C18U G21A U38G | 0.04
A12U C15A A26U A39C | 0.01
C13A A26U C45U | 0.06
C13A A24C C37G | 0.02
C13A C18U U43G C45U | 0.27
A12U A26U C31U G44U | 0.01
C13A A24G A25G U43A | 0.05
C13A C15A G35U A39G C45A | 0.05

Variant | self-cleavage
A12U A25G G27A U28A | 0.11
C13A C23A A24C A41C | 0
A12U G35C A39C G44A | 0.01
C13A A25C U32G U34C U43C | 0.02
C13A A25C U32G | 0.04
C13A A24G G35U G40A | 0.09
A12U C13A C23A G27A C31U | 0.03
C13A A14C A39G | 0.02
A12U G30U G33U | 0.02
A12U G17A C37A | 0.06
A12U G29U G33A U34G U43C | 0.01
A12U U20A G44U | 0.09
C13A G17A G21C C23A | 0.27
C13A C31G G35C | 0.03
A12U C13A A25G | 0.08
A12U C31U G36U A39C | 0.04
C13A A24C G33U G35U C45G | 0
A12U G17C C45G | 0.02
A12U U32C U34C G36A | 0.08
C13A A24G A26C C37G C45G | 0.03
C13A A39G C42U | 0.11
A12U G29U C45A | 0.04
C13A C18G U34A C42A | 0.03
A12U G17C C31A U34C | 0.01

Variant | self-cleavage
A12U C18A G40A | 0.06
C13A G17A U32A U43A | 0.01
A12U C13A A14C | 0.13
C13A A14C G35A C42A | 0
C13A G17C A26G G27C U43C | 0.02
A12U G22A C42A | 0.15
A12U C15A C18A G19U G27C G40A G44A | 0.01
A12U G22C C31A | 0.06
A12U C15U G19U G21C G30U | 0.2
C13A A16U G33C U34A G35A | 0.02
A12U G17U C42A U43A | 0.01
A12U G22C C45G | 0.09
A12U G17C U43A | 0.09
C13A A24G U34G U38A | 0.02
C13A C18U G30A G35C G36U | 0.07
A12U G22U A25G | 0.07
C13A C15U C46G | 0.04
A12U G19C U28C G29C C37G | 0
C13A G17C G33C | 0.07
A12U A24U U38C A39C | 0.09
C13A A16G U32G | 0.2
A12U C31G C45A | 0.04
A12U C23A G40U C45G | 0.09
